Data as given in PubChem BioAssay AID624171 (National Center for Advancing Translational Sciences (NCATS), 2012).
Among all 410,000 compounds or so, about 1,200 (0.29%) were called active. This list was built around the results that the source calls inconclusive (neither active nor inactive); the mix of calls is not that of the screen. The call rests on the fitted dose curve; in most records, active means well fitted activation curve with a large enough effect; inconclusive means small, poorly fitted or top-dose-only effect; inactive means flat fitted curve, though single readings scatter. Potencies beside an inconclusive call are fits to weak or partial responses and may not hold up.

Assay: qHTS of Nrf2 Activators; further: nearly all actives have a fitted effect of over 65% in size
Settings: AREc32 ARE-luciferase reporter (MCF7-derived line), luminescence, 24 h; activation: at 46.1 µM (top of the series)
Excerpt: Many diseases have some form of oxidative stress injury and ties to inflammation, causing a host of problems for the patient. The antioxidant response element (ARE) plays an important role in alleviating the harmful effects of oxidative stress. The antioxidant response element (ARE) is a transcriptional regulatory element involved in the activation of genes coding for a number of antioxidant proteins and detoxifying enzymes. These enzymes work in concert to protect tissues from oxidative insults and chemical toxicities in human hepatocytes and immune cells. The protective effects of ARE activation are primarily triggered through Nrf2 (NF-E2-related factor) binding to and activating AREs. It is known that Nrf2 controls the production of over 250 antioxidant and detoxification proteins (Hu et al., 2006), thereby protecting tissues by increasing cellular antioxidant content and suppressing inflammatory signaling pathways. The transcription factor Nrf2 is a central link between oxidative chemicals, such as phenolic antioxidants and electrophilic compounds, and the activation of ARE. […]
5 uL of 1000 cells/well of AREc32_Fluc cells are seeded into 1536-well plate in OPTI-MEM medium with 5% FBS. […] After the addition of 2.5 uL of Steady-Glo. the plates are kept at RT for 30 min, before they are read on the ViewLux.
Potency means the concentration at half of the fitted maximal effect; tags describe the fitted curve by direction and shape.

Structure (SMILES)	Potency
CCc1nnc(NS(=O)(=O)c2ccc(N/C=C(\C=O)c3nc4cc(Cl)ccc4o3)cc2)s1	inconclusive: 11.2 µM [activator, single point]
